± gives the standard deviation of the averaged measurements. The full ranking holds about 33,000 sequences; the median of “E-score (dimensionless, -0.5 to 0.5)” is about -0.046, and the highest 2% start at about 0.36. The list shows a part of the results.

The assay has as its system T1, SpTbr T-box DNA-binding domain (GST fusion).
T1 sequence: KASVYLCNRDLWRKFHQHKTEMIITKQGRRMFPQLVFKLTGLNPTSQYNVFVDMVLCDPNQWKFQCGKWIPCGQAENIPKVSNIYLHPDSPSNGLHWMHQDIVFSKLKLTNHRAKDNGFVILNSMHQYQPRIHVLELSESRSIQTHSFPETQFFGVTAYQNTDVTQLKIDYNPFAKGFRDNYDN
Description: PBM E-score of 8-mer (E-score (dimensionless, -0.5 to 0.5)); Tbr is Tbrain of the sea star Patiria miniata (Pm) or the sea urchin Strongylocentrotus purpuratus (Sp); higher = stronger binding preference; most listed sequences are background and not binding sites. The following applies: the construct has about 5 more residues each side. The procedure, abridged:
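Each ungapped 8-mer received an enrichment E-score from the Universal PBM Analysis Suite, averaged over duplicate arrays. The proteins were Tbr T-box DNA-binding domains, covering the whole T-box plus about five flanking residues, fused to GST and expressed in BL21 E. coli at 20 °C before glutathione affinity purification. Universal Agilent oligonucleotide arrays were made double-stranded by primer extension and incubated with 200 nM protein in PBS (pH 7.5). The arrays were then scanned and quantified, and every 8-mer was scored from probe intensities.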
For the sequence CAATGTTA, the “PBM E-score of 8-mer” value is -0.0418 ± 0.036. Then AACTAATT, with -0.221 ± 0.043; and CGTCGTTA, with 0.125 ± 0.074. The figure for GCTTTCTA is -0.0577 ± 0.0058; for CACACAAG it is 0.179 ± 0.038; for GGCGACCA it is -0.0782 ± 0.14.

GGCTGTTA: the “PBM E-score of 8-mer” value was 0.161 ± 0.029. Then GTAGAACA, with -0.0945 ± 0.031. As for ACAGCATG, the “PBM E-score of 8-mer” value was determined as 0.0974 ± 0.12. The figure for AATAGCCT is -0.0813 ± 0.078; for GCTTTAGA it is -0.0973 ± 0.021. The figure for AGGATATA is -0.067 ± 0.029; for CCAGTGTA it is -0.0905 ± 0.051; for CAAGCAAA it is -0.0951 ± 0.012. Turning to CCATCTGA, the “PBM E-score of 8-mer” value is 0.00464 ± 0.024. Then TTCAAAAA, with -0.241 ± 0.043; and TAAGCTTA, with -0.203 ± 0.0058; and CACACATC, with 0.4 ± 0.013. The figure for GTCGGACA is -0.171 ± 0.024. The figure for TGGAGACA is -0.0854 ± 0.0011; for TCAGTTAA it is -0.0462 ± 0.038.

Turning to ACTGCATG, the “PBM E-score of 8-mer” value is -0.118 ± 0.057. Then AACGCCGC, with 0.113 ± 0.0063. Then CCCTATAG, with -0.147 ± 0.04; and GTAGTAAC, with 0.0283 ± 0.036. The figure for CGTTTACC is -0.07813 ± 0.00062; for GATCCAAC it is -0.0248 ± 0.034; for CTGAGCAG it is -0.159 ± 0.0028. Regarding CTTACAAC, the “PBM E-score of 8-mer” value came to 0.0459 ± 0.067. Then AACTTCCT, with -0.109 ± 0.014; and CAGTAGAA, with -0.0894 ± 0.0075. Then CGGGTGAC, with 0.258 ± 0.051; and GCGACGCC, with 0.293 ± 0.023. The figure for AGAATATG is -0.0366 ± 0.062; for GCCGTCAC it is 0.291 ± 0.041.

On to CTATTCTA, for which the “PBM E-score of 8-mer” value is -0.092 ± 0.0036. The figure for CACAAGGA is -0.0844 ± 0.011; for ACTGGGGG it is -0.282 ± 0.075; for AATTGCGG it is -0.0334 ± 0.017. The figure for GTTCGAGA is -0.0843 ± 0.056. Then ATAAAGCC, with -0.225 ± 0.016; and CTTCATCA, with 0.0213 ± 0.084. On to CGATAGGC, for which the “PBM E-score of 8-mer” value was determined as 0.0244 ± 0.11. As to GCGTGCGA, the “PBM E-score of 8-mer” value was 0.317 ± 0.025. Then GGAGGAAA, with -0.307 ± 0.026; and GTGCTGCA, with 0.00563 ± 0.034.

As to CCCGGAGA, the “PBM E-score of 8-mer” value is -0.111 ± 0.064. The figure for CGTGAAAA is 0.329 ± 0.069; for GCTGACGA it is 0.165 ± 0.034; for ATCAGGGC it is -0.146 ± 0.015. For the sequence CAAGAATG, the “PBM E-score of 8-mer” value was -0.237 ± 0.018. The figure for GATAACAC is 0.414 ± 0.022. The figure for AGGTATCC is -0.223 ± 0.042; for ACATACAC it is 0.0995 ± 0.068; for AGGGACTA it is -0.1367 ± 0.00023. Regarding ATGGTGAC, the “PBM E-score of 8-mer” value was 0.2478 ± 0.0011. Then CAGAACTC, with -0.14 ± 0.0083; and AATGATGG, with -0.116 ± 0.046; and AATTCCCG, with -0.145 ± 0.036. As for CACCGCAA, the “PBM E-score of 8-mer” value worked out at 0.00114 ± 0.00069.

Regarding GCTCCTCC, the “PBM E-score of 8-mer” value was -0.323 ± 0.025.

With AGACAAAA, the “PBM E-score of 8-mer” value is -0.22 ± 0.016. For ATGCTGGA, the “PBM E-score of 8-mer” value was -0.245 ± 0.017. Then GCACTCGC, with 0.242 ± 0.083; and GCAGCGGA, with -0.249 ± 0.033.

Turning to AAGTGACA, the “PBM E-score of 8-mer” value worked out at 0.427 ± 0.013. Consider GGTGTTAC, for which the “PBM E-score of 8-mer” value came out at 0.4612 ± 0.0021. The figure for AACACGAC is 0.199 ± 0.024; for AATCTCAA it is -0.0835 ± 0.06.

As for CCACCTCA, the “PBM E-score of 8-mer” value is 0.172 ± 0.067. Turning to ACTTAGCA, the “PBM E-score of 8-mer” value is 0.0642 ± 0.0081. Consider GAGCTTCC, for which the “PBM E-score of 8-mer” value is -0.129 ± 0.05. Then CCTCCGCA, with -0.0325 ± 0.035; and CATCCATA, with -0.317 ± 0.0032. The figure for CACAGGAA is -0.171 ± 0.023; for ACAATCGG it is 0.0458 ± 0.055; for GCATTGAC it is -0.0995 ± 0.018. Then GCTAGCAC, with 0.2678 ± 0.0018; and TACCCATA, with -0.226 ± 0.01; and AGATAGCC, with -0.215 ± 0.025. On to CGCAGACC, for which the “PBM E-score of 8-mer” value was -0.171 ± 0.094. The figure for ATCTTCTG is -0.297 ± 0.0093; for CCCGACGC it is 0.095 ± 0.062. The figure for AGTAACGG is 0.0168 ± 0.06. The figure for GGGATCAC is -0.0302 ± 0.016. On to CGGCCCTC, for which the “PBM E-score of 8-mer” value was -0.119 ± 0.093.

Values taken from the supplement of paper PMC4166925.
